Part of at least one peptide drawing is inferred or uncertain, most often the ends. Some compounds share one wording; it may come from a single statement. Square brackets hold non-standard residues; d marks the D form. Ends that are not written are not given here. Peptide text beside a SMILES is read from it. Phg = N[C@H](C(=O)O)c1ccccc1; Nle = CCCC[C@H](N)C(=O)O; Nva = CCC[C@H](N)C(=O)O
system: splenocytes loaded with native peptide; experiment: PRAME pCTLR2 prime / peptide boost, in vivo cytotoxicity (CFSE); design: species or system HHD transgenic mice; conditions: not given

Row | Compound | In vivo cytotoxicity against native PRAME epitope coated cells
1 | FLLQHLIGL [Peptide S425F] | capable of expanding the immunity against the native epitope

system: T cell lines against natural epitope SSX-241-49; experiment: Cross-reactivity and functional avidity: IFN-gamma production by T cell lines raised against natural SSX-2 41-49; assay type: cell-based, HHD transgenic mice; conditions: T cells raised against native SSX-2 41-49 stimulated with analog, native = 1, lower = more active

Row | Compound | Cross-reactivity and fct avidity (native to analogs)
2 | CC[C@H](C)[C@H](NC(=O)[C@H](CCCCN)NC(=O)[C@H](CCC(=O)O)NC(=O)[C@H](CO)NC(=O)[C@@H](NC(=O)[C@@H](N)CCCCN)C(C)C)C(=O)N[C@@H](Cc1ccccc1)C(=O)N[C@@H](Cc1ccc(O)cc1)C(=O)N[C@H](C(N)=O)C(C)C [SSX2 41-49-NH2 (A42V)] | 10
3 | KMSEKIFYV [SSX2 41-49 (A42M)] | 0.1
4 | CCCC[C@H](NC(=O)[C@H](CCCCN)NC(=O)[C@H](CCC(=O)O)NC(=O)[C@H](CO)NC(=O)[C@@H](NC(=O)[C@@H](N)Cc1ccccc1)C(C)C)C(=O)N[C@@H](Cc1ccccc1)C(=O)N[C@@H](Cc1ccc(O)cc1)C(=O)N[C@H](C(=O)O)C(C)C [SSX2 41-49 (K41F, A42V, I46Nle), FVSEK(Nle)FYV] (H-FVSEK[Nle]FYV-OH) | 10
5 | CCCC[C@H](NC(=O)[C@@H](N)CCCCN)C(=O)N[C@@H](CO)C(=O)N[C@@H](CCC(=O)O)C(=O)N[C@@H](CCCCN)C(=O)N[C@H](C(=O)N[C@@H](Cc1ccccc1)C(=O)N[C@@H](Cc1ccc(O)cc1)C(=O)N[C@H](C(=O)O)C(C)C)[C@@H](C)CC [SSX2 41-49 (A42(Nle)), KNleSEKIFYV] | 0.1
6 | CC[C@H](C)[C@H](NC(=O)[C@H](CCCCN)NC(=O)[C@H](CCC(=O)O)NC(=O)[C@H](CO)NC(=O)[C@H](CC(C)C)NC(=O)[C@@H](N)Cc1ccccc1)C(=O)N[C@@H](Cc1ccccc1)C(=O)N[C@@H](Cc1ccc(O)cc1)C(=O)N[C@H](C(=O)O)C(C)C [SSX2 41-49 (K41F, A42L)] | 0.3
7 | CC[C@H](C)[C@H](NC(=O)[C@H](CCCCN)NC(=O)[C@H](CCC(=O)O)NC(=O)[C@H](CO)NC(=O)C(C)(C)NC(=O)[C@@H](N)CCCCN)C(=O)N[C@@H](Cc1ccccc1)C(=O)N[C@@H](Cc1ccc(O)cc1)C(=O)N[C@H](C(=O)O)C(C)C [SSX2 41-49 (A42(Aib)), KAibSEKIFYV] | 3
8 | FVSEKLFSA | >10
9 | YMSEKIFYV [SSX2 41-49 (K41Y, A42M)] | 3
10 | CC[C@H](C)[C@H](NC(=O)[C@H](CCCCN)NC(=O)[C@H](CCC(=O)O)NC(=O)[C@H](CO)NC(=O)[C@H](CC(C)C)NC(=O)[C@@H](N)CCCCN)C(=O)N[C@@H](Cc1ccccc1)C(=O)N[C@@H](Cc1ccc(O)cc1)C(=O)N[C@H](C(=O)O)C(C)C [SSX2 41-49 (A42L)] | 0.03
11 | FVSQKIFYV [SSX2 41-49 (K41F, A42V, E44Q)] | 10
12 | CC[C@H](NC(=O)[C@H](Cc1ccc(O)cc1)NC(=O)[C@H](Cc1ccccc1)NC(=O)[C@@H](NC(=O)[C@H](CCCCN)NC(=O)[C@H](CCC(=O)O)NC(=O)[C@H](CO)NC(=O)[C@@H](NC(=O)[C@@H](N)Cc1ccccc1)C(C)C)[C@@H](C)CC)C(=O)O [SSX2 41-49 (K41F, A42V, V49Abu)] | 1
13 | CC[C@H](C)[C@H](NC(=O)[C@H](CCCCN)NC(=O)[C@@H](NC(=O)[C@H](CO)NC(=O)[C@@H](NC(=O)[C@@H](N)Cc1ccccc1)C(C)C)[C@@H](C)O)C(=O)N[C@@H](Cc1ccccc1)C(=O)N[C@@H](Cc1ccc(O)cc1)C(=O)N[C@H](C(=O)O)C(C)C [SSX2 41-49 (K41F, A42V, E44T)] | >10
14 | FVSEKLFTA | >10
15 | FVSEKIFSV [SSX2 41-49 (K41F, A42V, Y48S)] | >10
16 | WVSEKIFYV [SSX2 41-49 (K41W, A42V)] | 1
17 | CC[C@H](C)[C@H](NC(=O)[C@H](CCCCN)NC(=O)[C@H](CCC(=O)O)NC(=O)[C@H](CO)NC(=O)[C@H](C)NC(=O)[C@@H](N)Cc1c[nH]c2ccccc12)C(=O)N[C@@H](Cc1ccccc1)C(=O)N[C@@H](Cc1ccc(O)cc1)C(=O)N[C@H](C(=O)O)C(C)C [SSX2 41-49 (K41W)] | >10
18 | FISEKIFYV [SSX2 41-49 (K41F, A42I)] | 0.3
19 | CCC[C@H](NC(=O)[C@H](CO)NC(=O)[C@@H](NC(=O)[C@@H](N)Cc1ccccc1)C(C)C)C(=O)N[C@@H](CCCCN)C(=O)N[C@H](C(=O)N[C@@H](Cc1ccccc1)C(=O)N[C@@H](Cc1ccc(O)cc1)C(=O)N[C@H](C(=O)O)C(C)C)[C@@H](C)CC [SSX2 41-49 (K41F, A42V, E44Nva), FVS(Nva)KIFYV] (H-FVS[Nva]KIFYV-OH) | 3
20 | CC[C@H](C)[C@H](NC(=O)[C@H](CCCCN)NC(=O)[C@H](CCC(=O)O)NC(=O)[C@H](CO)NC(=O)[C@H](C)NC(=O)[C@@H](N)c1ccccc1)C(=O)N[C@@H](Cc1ccccc1)C(=O)N[C@@H](Cc1ccc(O)cc1)C(=O)N[C@H](C(=O)O)C(C)C [SSX2 41-49 (K41(Phg))] (H-[Phg]ASEKIFYV-OH) | 0.1
21 | CC[C@H](C)[C@H](NC(=O)[C@H](CCCCN)NC(=O)[C@H](CCC(=O)O)NC(=O)[C@H](CO)NC(=O)[C@H](C)NC(=O)[C@@H](N)Cc1ccc(OC)cc1)C(=O)N[C@@H](Cc1ccccc1)C(=O)N[C@@H](Cc1ccc(O)cc1)C(=O)N[C@H](C(=O)O)C(C)C [SSX2 41-49 (K41(O-methylTyr))] (H-Y(Me)ASEKIFYV-OH) | 3
22 | CC[C@H](C)[C@H](NC(=O)[C@H](CCCCN)NC(=O)[C@H](CCC(=O)O)NC(=O)[C@H](CO)NC(=O)[C@@H](NC(=O)[C@@H](N)Cc1ccc(O)cc1)C(C)C)C(=O)N[C@@H](Cc1ccccc1)C(=O)N[C@@H](Cc1ccc(O)cc1)C(=O)N[C@H](C(=O)O)C(C)C [SSX2 41-49 (K41Y, A42V)] | 0.1
23 | FVSEKLFYV [SSX2 41-49 (K41F, A42V, I46L)] | 3
24 | FVSEKMFYV [SSX2 41-49 (K41F, A42V, I46M)] | >10
25 | CCCC[C@H](NC(=O)[C@H](CO)NC(=O)[C@@H](NC(=O)[C@@H](N)Cc1ccccc1)C(C)C)C(=O)N[C@@H](CCCCN)C(=O)N[C@H](C(=O)N[C@@H](Cc1ccccc1)C(=O)N[C@@H](Cc1ccc(O)cc1)C(=O)N[C@H](C(=O)O)C(C)C)[C@@H](C)CC [SSX2 41-49 (K41F, A42V, E44Nle), FVS(Nle)KIFYV] (H-FVS[Nle]KIFYV-OH) | 10
26 | CC[C@H](C)[C@H](NC(=O)[C@H](CCCCN)NC(=O)[C@H](CCC(=O)O)NC(=O)[C@H](CO)NC(=O)[C@H](NC(=O)[C@@H](N)CCCCN)C(C)C)C(=O)N[C@@H](Cc1ccccc1)C(=O)N[C@@H](Cc1ccc(O)cc1)C(=O)N[C@H](C(=O)O)C(C)C [SSX2 41-49 (A42(D-Val)), K(D-Val)SEKIFYV] | 3
27 | FVSEKLFTV [SSX2 41-49 (K41F, A42V, I46L, Y48T)] | >10
28 | CC[C@H](C)[C@H](NC(=O)[C@H](CCCCN)NC(=O)[C@H](CCC(=O)O)NC(=O)[C@H](CO)NC(=O)[C@H](CC(C)C)NC(=O)[C@@H](N)CCCCN)C(=O)N[C@@H](Cc1ccccc1)C(=O)N[C@@H](Cc1ccc(O)cc1)C(=O)N[C@H](C(N)=O)C(C)C [SSX2 41-49-NH2 (A42L)] | 3

Reference: patent publication US8653237B2, “Peptide analogues” (MannKind Corporation, priority 2005, dated 2014)
